Experimental findings from the supplement of paper PMC12632987 are described below.

First the molecules themselves.
B1: GBRAP_139_3731 (protein)
chain: NEAEEKIEKAVELAEKSMKTGGEYVKEIADLLNSMDEETAEKAAEAIAEVAKKESFDKVEKFFDELIETLLTEHKNEDLADIVEAARNRALAEVAVREEK
B2: GBRAP_52_6063 (protein)
chain: SKEKIEELAKKIYEAIKEGNLEKALELAEEAVKELSLEEIKEMLELTAKLVAKGNDEQHELFVEFLDKFEDIMIKEGISEEDALIIVGNAEATLAKEVAK
B3: GBRAP_11_2840 (protein)
chain: EKEKLKALAEAAAALAAELEALIASGAPTQEQLDALLKKAKALLAETKASGDKAAAKIAEIAVEEIEKAIADPATQQQHLQNALAAARVLEGQYLLKLEE
B4: GBRAP_39_5658 (protein)
chain: EEEEENELEFSYLVALAEKYRVDKGISDEELIEEGLKTLEKIAKENPEIKELVNELIELAKNGDLETKLAAAGIALLYKEGTPLEEIKEHIEKFINYVKS
B5: GBRAP_160_4456 (protein)
chain: SERLEKYLALIDEIREESIKLIEGETHEQRVVIIEGLFGEFLMELVEDESVSDELEDKVAEVIDELVEYLRENPDLTEEEIKELIDEAAEKIKEILKEEL
B6: GBRAP_26_5473 (protein)
chain: LEELFKKFLEKLEKALDELLDPELAAAAKAELATLVYEAEEKLEENKNDMEKQKKILEEFLKELGEELETLGVPEEKREKLLEIAKKEAEKILKELKEKQ
B7: GBRAP_137_3618 (protein)
chain: KTVTITFSEEDGVALATLEADPSVDHERLRELVERVAEETGAQVVEAYDENSDTLVLDLVGDRETIIAATRLLIRRLREELGAEVVLRSDGAEDLVEAVR
B8: GBRAP_39_5635 (protein)
chain: EEEEEIELLESLAEAELAKRLVETGLSLEELYEKLLKEALEKAKDDPELKKLIEELDKLAKEKGEEAKEKLTAILALLLSGEPLEDVKKLLKAKIEELKK

In all, about 4,500 sequences were measured (“median log2 fold change of GCK-ALFA target abundance (FLAG IP / Myc IP barcode read proportion)”: median about 0.078, lowest 2% from about -0.6 on). The list shows a part of the results.

GABARAP, O95166, sequence (O95166 whole entry, the tested form may be a part): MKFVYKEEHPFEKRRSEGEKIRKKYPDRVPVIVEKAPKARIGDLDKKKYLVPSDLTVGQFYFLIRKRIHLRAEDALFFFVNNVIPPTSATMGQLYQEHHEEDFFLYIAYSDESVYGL

This assay has as its target GABARAP, O95166. Put plainly: median log2 fold change of GCK-ALFA target abundance (FLAG IP / Myc IP barcode read proportion) (log2 ratio); each designed protein is fused to an ALFA-tag nanobody in HEK293 cells to bring the named protein to FLAG-tagged glucokinase (GCK); Myc marks an untargeted standard; higher = target protein stabilised (more abundant). The conditions noted are these: target protein: 3xFLAG-MCP-GCK-ALFA reporter; HEK293 landing pad (RPLP). How it is done: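 LABEL-seq trans screen in HEK293 landing-pad cells. Each de novo designed 100-aa effector handle, binding the indicated effector (E3 ligase, DUB or autophagy protein), is fused to a constant NbALFA target handle and induced with 2 ug/mL doxycycline. A FLAG-MCP-GCK-ALFA target and a Myc-MCP standard reporter were transfected, and after 48 h circRNA barcodes were recovered by anti-FLAG and anti-Myc IP and sequenced. The value is the median across barcodes (at least 3 per design) of log2(FLAG/Myc read-proportion ratio), with the two transfection replicates pooled. Negative values mean degradation and positive values mean stabilisation of the target.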
Turning to B1, the “median log2 fold change” value came out at 0.207.
With B2, the “median log2 fold change” value was -0.183.
For the molecule B3, the “median log2 fold change” value amounted to 0.322.
Take B4: the “median log2 fold change” value was determined as 0.256.
As for B5, the figure is -0.275; as for B6, 0.0554.
On to B7, for which the “median log2 fold change” value came to 0.023.
For B8, the “median log2 fold change” value was found to be 0.452.
